This experiment has as its system 292921-168-R-J2-PDC complex spheroid growth. The experiment can be described thus: Anticancer human tumor 292921-168-R-J2-PDC patient-derived pancreatic carcinoma cell line growth inhibition [AhR]. The following applies: for viability, T/C: compound alone 3.16 µM, stronger effect = lower value; for IC50: compound alone. The text has this:
Multicellular complex tumor spheroid response to aryl hydrocarbon receptor antagonists in combination with a variety of drugs and investigational agents in selected tumor cell lines
The current study was undertaken to assess response to aryl hydrocarbon receptor antagonists in combination with standard-of-care drugs and investigational agents in solid tumor complex spheroid models. Complex spheroids include a stromal component modeled by human endothelial cells (HUVEC) and fibroblasts modeled by human mesenchymal stem cells (MSCs). The concentration ranges selected for each drug and investigational agent were based upon clinically achievable concentrations if the clinical Cmax of the agent was known.
Compounds. The drugs and investigational agents: BAY 2416964 (NSC825713), GNF351 (NSC835774), CH-223191 (NSC835775), CPI-455 (NSC825282), aza-TdCyd (NSC777586), decitabine (NSC127716), belinostat (NSC758774), entinostat (NSC756642), pevonedistat (NSC761192), tazemetostat (NSC777109), talazoparib (NSC765396), olaparib (NSC753686), selinexor (NSC780203), nedisertib (M3814, NSC802822), bortezomib (NSC756655), venetoclax (NSC766270), doxorubicin (NSC123127), elimusertib (BAY189344, NSC800525), ceralasertib (AZD6738, NSC777638), TAK-243 (NSC785004), alisertib (NSC759677), etoposide (NSC141540), topotecan (NSC609699), eribulin (NSC707389), gemcitabine (NSC613327), carboplatin (NSC241240), cisplatin (NSC119875), and SN-38 (NSC673596) were obtained from the National Cancer Institute (NCI) Developmental Therapeutics Program Chemical Repository (32). The FDA-approved anticancer drug set is available from the Developmental Therapeutics Program at https://dtp.cancer.gov/organization/dscb/obtaining/available plates.htm. […] The stock solutions were prepared in dimethyl sulfoxide (DMSO, Sigma-Aldrich, St. Louis, MO, cat. D2650), except for the platinum compounds which were prepared in saline (Quality Biological, Gaithersburg, MD, cat. 114-055-101), at 800-fold the tested concentration and stored at -70 degrees C prior to their use. All drugs and investigational agents were tested over a range starting from a high concentration at or near the clinical Cmax and decreasing in half-log increments. If the clinical Cmax for an agent had not been determined, the highest concentration tested was 10 microM (Table 1).
Cell Culture. All cells were maintained in an incubator at 37 degrees C and 5% CO2 with 95% humidity. The PDC lines were cultured according to standard operating procedures established by the NCI PDMR (https://pdmr.cancer.gov). […]

Our source for the viability, T/C and IC50 values is PubChem BioAssay AID1918994 (Molecular Pharmacology Branch, DTP, NCI, 2023).

Usually viability, T/C stands for the ratio of treated to control. As a reminder, the IC50 is the concentration at which inhibition is half-maximal.

Certain results were filed several times, with different values. This is not the full list of results. An entry can have further records. The values listed for one entry are repeats (runs, samples, wells, individuals or studies). Marks such as (2×) say how often a value occurs here. Dates in brackets are months of testing.
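Further: spheroids exposed to compounds for seven days after three days of growth.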

Regarding `Cc1ccccc1N=Nc1ccc(NC(=O)c2ccnn2C)c(C)c1`, the viability, T/C was 71.6, 87, 69.9, 73.7 (2×), 70.4, 69.3, 62.5, 78.8, 61.7, 67.4, 68.9, 80.4, 69.1, 74, 76, 74.1, 80.7, 72.7, 74.5%.

In the case of `Cc1cncc(-c2nc(NCCc3c[nH]c4ccccc34)c3ncn(C(C)C)c3n2)c1`, the viability, T/C is 68.3, 75.6, 66.9, 65.1, 66.4, 64.4, 65.2, 62.9, 70.7, 61.5, 63.4 (2×), 69.3, 70.1 (2×), 73.3, 64.1, 48.5, 60.5, 72.9%. Further, the IC50 (combination with AhR antagonist, run of 06/06/2022) is reported as 7.99 µM, 9.44 µM, 6.82 µM, 8.27 µM, 6.96 µM, 8.62 µM, 7.14 µM, 6.53 µM, 7.08 µM, 6.83 µM, 9.18 µM, 9.06 µM, > 10 µM, 7.68 µM, 6.97 µM, 3.07 µM, 8.93 µM, 9.04 µM, 6.54 µM, 8.37 µM, 6.4 µM.

In the case of `COc1cc(Nc2ncc3c(n2)-c2ccc(Cl)cc2C(c2c(F)cccc2OC)=NC3)ccc1C(=O)O`, the IC50 was 58.2 nM [2022-05] and 3.6 µM, 31.6 nM [2022-06].
